We go through 42 compounds from ChEMBL document CHEMBL4888484, “Replenishing the malaria drug discovery pipeline: Screening and hit evaluation of the MMV Hit Generation Library 1 (HGL1) against asexual blood stage Plasmodium falciparum ,using a nano luciferase reporter read-out” (2022).

The structures appear in SMILES notation. About 540 (0.36%) of roughly 150,000 compounds showed an effect of 50% or more. The list shows a part of the results.

The subject of this assay is Plasmodium falciparum. Kind of assay: Primary screen in NF54 nanoGlo assay, in single point, at 2uM, 72h; a lower Z score goes with more inhibition. Type of assay: functional, Erythrocyte. The following applies: timepoint 72 hour.
For the compound `Cc1nn(C)c(C)c1S(=O)(=O)N1CC(Oc2cccnc2)C1`, the % Inhibition (as a rule, the change of the read-out against control, counted positive when it falls) is -5% and the Z score was determined as 0.88.

As for `CNC(=O)[C@H](C)N(C)C(=O)c1cc2c(n(C)c1=O)CCCC2`, the “% Inhibition” value was -10% and the Z score is listed as 1.69.

As for `Cc1noc(C)c1CC(=O)N[C@H]1CC(=O)N(c2ccccc2)C1`, the “% Inhibition” value is listed as -14% and the Z score was 2.12.

For the compound `COc1ccc(OC)c2c1cc1n2C[C@@](C)(C(=O)NC2CCCCCC2)N(Cc2ccccn2)C1=O`, the “% Inhibition” value is on record as -2% and the Z score is reported as 0.32.

For `O=C(Nc1nc2c(s1)CN(Cc1ccccc1)CC2)c1ccc(S(=O)(=O)N2CCCC2)cc1`, the “% Inhibition” value stood at 13% and the Z score is on record as -1.7.

Turning to `C=C(C)CN1CCN(CC[C@H]2CCOC2)CC1`, the “% Inhibition” value is recorded as -10% and the Z score stood at 1.87.

Consider `NC(=O)NCCC(=O)N1CCc2onc(-c3cccc4ccccc34)c2C1`, for which the “% Inhibition” value was -2% and the Z score came out at 0.36.

Regarding `CCOCCNc1ccc(S(N)(=O)=O)cc1C(F)(F)F`, the “% Inhibition” value stood at 0% and the Z score was -0.09.

Regarding `COc1ccccc1CCC(=O)N1C[C@@H]2C[C@H]1C(=O)N2c1cc(Cl)ccc1OC`, the “% Inhibition” value was found to be 4% and the Z score is listed as -0.62.

For the compound `Cc1cc(CN(C)C(=O)c2[nH]nc(C)c2Cl)on1`, the “% Inhibition” value came out at 2% and the Z score is -0.23.

Consider `COC(=O)NC12C3C4C1C1C2C3C1(Br)C41OCCO1` (centres undefined), for which the “% Inhibition” value is recorded as -22% and the Z score amounted to 2.6.

In the case of `CC(C)(C)c1cc(-c2nccn2[C@H]2COC[C@@H]2N2CCCCC2)n[nH]1`, the “% Inhibition” value was -5% and the Z score was 0.94.

Take `Cc1nnsc1C(=O)NCCn1ccc(C(F)(F)F)n1`: the “% Inhibition” value is given as -20% and the Z score worked out at 2.56.

As to `O=C(NC[C@H](O)c1cccnc1)c1cn(Cc2ccc(F)cc2)nn1`, the “% Inhibition” value is given as -5% and the Z score is 0.65.

`C=CCNC(=O)CN1CC[C@@](O)(c2ccccc2)[C@H]2CCCC[C@H]21`: the “% Inhibition” value was -12% and the Z score was 2.12.

Consider `c1ccc(-c2cnc(NC3CCOC(c4cccnc4)C3)cn2)cc1` (centres undefined), for which the “% Inhibition” value is listed as -10% and the Z score is on record as 1.84.

Turning to `O=C(NC[C@H](O)c1ccoc1)c1ccc(Br)o1`, the “% Inhibition” value was -10% and the Z score is on record as 1.57.

As to `Cc1occc1CNS(=O)(=O)CCCS(=O)(=O)C(F)(F)F`, the “% Inhibition” value is -5% and the Z score amounted to 0.98.

Consider `CCOC(=O)N1CCN(c2ccc(NC(=O)C3CCCC3)c(C(=O)O)c2)CC1`, for which the “% Inhibition” value is listed as 12% and the Z score was -1.9.

In the case of `Cc1ccc(N2C[C@@H](C(=O)Nc3cc(NC(=O)Cn4cccnc4=O)ccc3F)CC2=O)cc1F`, the “% Inhibition” value came to 5% and the Z score is given as -0.65.

For `CCC(F)(F)CN1CCc2occc2[C@@H]1C(=O)O`, the “% Inhibition” value is -6% and the Z score is recorded as 0.88.

With `O=C(CCCn1cncn1)Nc1c(O)c(Cl)cc(Cl)c1Cl`, the “% Inhibition” value was -2% and the Z score is 0.2.

For the compound `COc1ccc2c(c1)CCCN([C@H]1CCN(CC(F)(F)F)C1=O)C2`, the “% Inhibition” value is reported as -8% and the Z score is given as 1.65.

Consider `CC(CCCC(C)(C)O)NC(C)CCc1ccccc1` (centres undefined), for which the “% Inhibition” value is -10% and the Z score turned out to be 1.31.

With `Cc1noc(-c2cccc(C(F)(F)F)c2)c1C(=O)NCc1cccc(F)c1F`, the “% Inhibition” value is given as -16% and the Z score was 1.78.

Consider `CC(C)c1noc(C(C)N2Cc3ccccc3C(c3ccccc3)C2)n1` (centres undefined), for which the “% Inhibition” value stood at 2% and the Z score is -0.27.

Consider `COc1ccc(NC(=O)C2CCC(CNS(=O)(=O)c3ccc4c(c3)C(C)(C)C(=O)N4C)CC2)cc1` (centres undefined), for which the “% Inhibition” value is on record as -9% and the Z score was 0.87.

Regarding `Cc1nnc(N2CCC[C@H](CN3CCOCC3)C2)s1`, the “% Inhibition” value was 2% and the Z score is recorded as -0.25.

As to `O=C1N[C@H]2C[C@@H](C(=O)NC[C@H]3O[C@H](CCOc4ccccc41)CC[C@@H]3O)N(Cc1ccc3c(c1)OCO3)C2`, the “% Inhibition” value was 26% and the Z score is -2.92.

Turning to `CC(=O)N(CC(=O)Nc1ccc(N2CCN(C(=O)Nc3cccc(C(F)(F)F)c3)CC2)cc1)Cc1ccccc1`, the “% Inhibition” value is on record as -16% and the Z score amounted to 2.28.

`COCCn1c(CO)nnc1[C@H]1C[C@@H](NC(=O)c2cccc(O)c2C)C1`: the “% Inhibition” value is given as -9% and the Z score came to 1.61.

With `CC1CN(c2cc(N(C)C)ncn2)CC(C)O1` (centres undefined), the “% Inhibition” value is recorded as -12% and the Z score is 1.6.

As for `Cn1c(=O)[nH]c2ncc(-c3cccc(C(=O)NC[C@H]4Cc5ccccc5O4)c3)cc21`, the “% Inhibition” value is on record as -3% and the Z score stood at 0.29.

For the compound `COc1nn(C)cc1C(=O)Nc1ccon1`, the “% Inhibition” value is given as -4% and the Z score is 0.49.

Turning to `CC(CC(=O)c1ccc(F)cc1)NC(=O)C1C2C3CCC(C3)C12` (centres undefined), the “% Inhibition” value is on record as -5% and the Z score is given as 0.56.

Take `Cn1cnc2c(C(=O)N3CCCCC3)nn(-c3ccccc3)c2c1=O`: the “% Inhibition” value is -21% and the Z score turned out to be 1.96.

For the compound `CCc1nn(-c2cccc(C)c2)c(N2CCN(C)CC2)c1CN(Cc1ccc(C)cc1)C(C)C`, the “% Inhibition” value is -6% and the Z score is reported as 0.9.

Consider `Cc1ccc(CNC(=O)C[C@H]2CCCCN(C)C2=O)cc1`, for which the “% Inhibition” value is -13% and the Z score was determined as 2.53.

As to `CN(Cc1ccsc1)C(=O)[C@@H]1CCCO1`, the “% Inhibition” value is on record as -12% and the Z score is 1.74.

As for `Cc1noc(C)c1CS(=O)(=O)C[C@H](O)c1ccc(F)cc1`, the “% Inhibition” value is -5% and the Z score worked out at 0.73.

Regarding `O=C(c1cccc(-n2cccn2)n1)N1CCC(Cc2ccccc2)CC1`, the “% Inhibition” value was determined as 1% and the Z score is reported as -0.24.

`CN(C)c1noc(CN(Cc2ccc(F)cc2F)C2CC2)n1`: the “% Inhibition” value worked out at 6% and the Z score is recorded as -0.66.
